# Source: PubChem BioAssay AID686978 (National Center for Advancing Translational Sciences (NCATS), 2013)
# The campaign covered roughly 420,000 compounds. About 64,000 (15%) were called active. The shares of active, inactive and inconclusive entries below differ from those in the screen. The call rests on the fitted dose curve; in most records, active means well fitted inhibition curve with a large enough effect; inconclusive means small, poorly fitted or top-dose-only effect; inactive means flat fitted curve, though single readings scatter. Potencies of inconclusive entries are left out as doubtful fits.
# Test: qHTS for Inhibitors of human tyrosyl-DNA phosphodiesterase 1 (TDP1): qHTS in cells in absence of CPT; further: nearly all actives have a fitted effect of over 55% in size
# Conditions: DT40 Tdp1-/- hTDP1 cells, no CPT, ATP luminescence, 48 h; activity change, negative = growth inhibition: at 46.2 µM (top of the series) unless noted
# Procedure, shortened: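 Readout: luminescence from CellTiter-Glo after 30 min in the dark at RT. Cells: DT40 Tdp1-/- with stable hTDP1, 400/well. Exposure: compounds alone, ≥48 hr, 37 °C.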
# On the % scale 0 is the no-effect control and ±100 the full control effect; potency means the concentration at half of the fitted maximal effect; tags describe the fitted curve by direction and shape.
SMILES,Potency,"activity change, negative = growth inhibition"
Cn1c(N)c(C(=O)COC(=O)C2CCC(C(C)(C)C)CC2)c(=O)n(C)c1=O (stereo unspecified),"inconclusive [inhibitor, single point]",–
CC(=O)Nc1ccc(S(=O)(=O)Oc2ccccc2N2CCCCC2)cc1,"inconclusive [inhibitor, single point]",–
COc1ccc(NC(=O)CSc2nccn2Cc2ccc3c(c2)OCO3)cc1,"inconclusive [inhibitor, single point]",–
COc1ccc(CCn2c(SCC(=O)Nc3cc(C)on3)nc3ccccc3c2=O)cc1OC,"inconclusive [inhibitor, full curve, poor fit]",–
CS(=O)(=O)c1cccc(C(=O)N(CCc2ccccc2)Cc2cccs2)c1,"inconclusive [inhibitor, partial curve]",–
CC1CN(CCc2ccccc2)c2nc3c(c(=O)n(C)c(=O)n3C)n2C1 (stereo unspecified),"inconclusive [inhibitor, partial curve]",–
CSc1ccc(S(=O)(=O)N2CCC(C(=O)NC3CC3)CC2)cc1,–,inactive: -18.8%
Cc1[nH]c2ccccc2c1C(=O)CN1C(=O)NC2(CCCCCC2)C1=O,"inconclusive [inhibitor, single point]",–
O=C(NCc1cccnc1)c1cc(C2CCCN(C(=O)c3ccc4c(c3)CCO4)C2)on1 (stereo unspecified),"inconclusive [inhibitor, partial curve]",–
Cc1ccc(NC(=O)COCC(=O)Nc2ccc(F)cc2)cc1,active: 20.6 µM,–
COc1ccc(C)cc1NC(=O)C(=O)NCC(c1cccnc1)N1CCc2ccccc21 (stereo unspecified),active: 14.6 µM,–
Cc1cc(SCc2ccc([N+](=O)[O-])cc2)nc(=O)[nH]1,–,inactive: -20.9%
Cc1ccccc1Cn1cc(S(=O)(=O)CC(=O)Nc2nccs2)c2ccccc21,"inconclusive [inhibitor, single point]",–
CC1CC(C)CN(C(=O)CN2C(=O)NC3(CCCCCCC3)C2=O)C1 (stereo unspecified),–,inactive: -0.0979%
CCOc1ccc(/C=C/C(=O)OC(C)C(=O)NC2CCCCC2C)cc1OC (stereo unspecified),"inconclusive [inhibitor, single point]",–
COc1ccc2oc(=O)c(/C(C)=N/NC(=O)c3ccncc3)cc2c1,–,inactive: -1.98%
Cc1cccc(N2C(=O)CC(N(O)c3ccccc3)C2=O)c1 (stereo unspecified),"inconclusive [inhibitor, partial curve, poor fit]",–
COc1ccc(OC)c(N2C(=O)[C@@H]3C(c4ccccc4Cl)=NO[C@@H]3C2=O)c1,"inconclusive [inhibitor, partial curve]",–
CC(=O)c1cccc(N(C(=O)CNC(=O)c2ccco2)C(C(=O)NCC2CCCO2)c2ccccc2)c1 (stereo unspecified),–,inactive: 0.838%
COC/C=C/C1=CC2=CC(=O)C(C)(OC(=O)c3cnc4ccccc4n3)C(=O)C2=CN1CCCCO (stereo unspecified),"inconclusive [inhibitor, single point]",–
CC(C)C[C@H](NC(=O)c1nc[nH]c1C(=O)N1CCC(C)CC1)C(=O)OCc1ccccc1,–,inactive: -18.3%
COc1ccc(C2=Nc3ccccc3NC(c3cccs3)=N2)cc1,"inconclusive [inhibitor, single point]",–
CCOc1ccccc1NC(=O)c1c(NC(=O)COc2ccccc2)sc2c1CCCC2,–,inactive: -26.4%
COc1ccc(/C=C2\SC(=O)N(CC(=O)Nc3cccc(C)c3)C2=O)cc1O,"inconclusive [inhibitor, single point]",–

SMILES,Potency,"activity change, negative = growth inhibition"
Cc1cc(Cl)ccc1OCCCC(=O)NCCc1nnc2ccccn12,–,inactive: -4.66%
Cc1nc(C)c(C(=O)N2CCCC(C(=O)c3ccc(Cl)cc3C)C2)s1 (stereo unspecified),"inconclusive [inhibitor, single point]",–
CNc1nc(SC)nc(N(C#N)CC(=O)OC)n1,–,inactive: -17.2%
CCn1cc(C(=O)NC(C)CCc2ccccc2)c(=O)c2cc(S(=O)(=O)N(C)C)ccc21 (stereo unspecified),–,inactive: -28%
Cc1ccc(-n2c3c(cc(C(=O)Nc4ccccc4C(N)=O)c2=O)C(=O)CC(C)(C)C3)cc1,–,inactive: -23.7%
CC(C(=O)N1CCN(Cc2ccc3c(c2)OCO3)CC1)c1ccc([N+](=O)[O-])cc1 (stereo unspecified),"inconclusive [inhibitor, single point]",–
O=C(O)C1C=CC(C(=O)O)c2ccccc21 (stereo unspecified),–,inactive: -0.618%
Cc1cc(C)n(-c2ccc(NC(=O)C3CCCCN3C(=O)c3ccc(C)s3)cc2)n1 (stereo unspecified),–,inactive: -24.3%
O[C@H]1C[C@H](c2ccccc2)N(CC2CCCCC2)C[C@@H]1n1cc(C2CC2)nn1,active: 7.31 µM,–
Cc1ccc(OCCn2c(C)c(/C=N/n3cnnc3)c3ccccc32)cc1,–,inactive: -22.6%
COc1ccccc1NC(=O)c1ccccc1SCC(=O)N1CCCC1,"inconclusive [inhibitor, single point]",–
Cc1ccc(S(=O)(=O)N2CCN(c3ncnc4scc(-c5ccccc5)c34)CC2)cc1,active: 23.1 µM,–
COc1ccc(OCC(=O)c2c(O)c3ccccc3oc2=O)cc1,–,inactive: -26.3%
O=C(CCn1c(=O)oc2ccccc21)NCCC1=CCCCC1,"inconclusive [inhibitor, single point]",–
CCOC(=O)/C(C#N)=C/C1=C(N2CCOCC2)C(C)(C)OCC1,–,inactive: -23.1%
CCN(CC(=O)N1CCOCC1)S(=O)(=O)c1ccc(Cl)cc1,–,inactive: -9.41%
Cc1c(Cl)cnc(NC(=O)COC(=O)c2ccc(S(=O)(=O)NCc3ccco3)cc2)c1Cl,–,inactive: -8.95%
COc1ccc(Nc2nc(-c3cccnc3)cs2)c(OC)c1,"inconclusive [inhibitor, single point]",–
O=S(=O)(c1ccc(Cl)cc1)N1CCCC1c1nc(-c2ccc(Cl)cc2)no1 (stereo unspecified),"inconclusive [inhibitor, single point]",–
CN(c1ccccc1)S(=O)(=O)c1cccc(C(=O)Nc2ccc3c(c2)CCC3)c1,active: 2.59 µM,–
CCC(C)(C)NC(=O)/C=C/c1cnc2ccccc2n1,"inconclusive [inhibitor, full curve, poor fit]",–
O=C(NCCCc1ccccc1)c1ccc(-n2cncn2)c([N+](=O)[O-])c1,"inconclusive [inhibitor, partial curve]",–
COc1ccc([C@H]2CC(=O)C=C(c3cc(Cl)ccc3OC)C2)cc1,"inconclusive [inhibitor, single point]",–
C=CCNC(=O)/C(C#N)=C/c1c(C)nn(-c2ccccc2)c1Cl,"inconclusive [inhibitor, single point]",–

SMILES,Potency,"activity change, negative = growth inhibition"
O=C(NCc1ccccc1)c1cccc2c(-c3cccnc3)coc12,"inconclusive [inhibitor, single point]",–
Cc1c(Cl)cccc1NC(=S)N1CCC(N(C)CC2CCCO2)CC1 (stereo unspecified),–,inactive: 0.696%
CCN(C(=O)CSc1cc(C)c2cccc(C)c2n1)C1CCS(=O)(=O)C1 (stereo unspecified),"inconclusive [inhibitor, partial curve]",–
CC1Cc2ccccc2N1C(=S)NC(=O)c1ccc(Cl)cc1Cl (stereo unspecified),active: 10.3 µM,–
O=C(Nc1ccc(Cl)c(Cl)c1)N(Cc1cccnc1)Cc1ccco1,"inconclusive [inhibitor, full curve]",–
Cc1ccc(-c2nc3c(=O)n(C)c4ccccc4c3o2)cc1,"inconclusive [inhibitor, partial curve]",–
Cc1nc(Nc2cnc(/C=C/c3cc(C(=O)Nc4cccc(C(F)(F)F)c4)ccc3C)cn2)cc(N2CCNCC2)n1,active: 20.6 µM,–
CCCOc1ccc(CNC(=O)CCCn2ncn3c(cc4sc(CC)cc43)c2=O)cc1,"inconclusive [inhibitor, single point]",–
Cc1ccc(N2C(=O)[C@@H]3[C@H](C2=O)C2CCCN2[C@@H]3C(=O)c2ccccc2)cc1 (stereo partly specified),–,inconclusive: -35.8% [inhibitor]
Cc1cc(/C=N/NC(=O)c2ccccc2F)c(C)n1-c1ccccc1,–,inactive: 2.24%
COc1ccc(N(CC(=O)NCc2cccnc2)S(=O)(=O)c2ccc(C)c([N+](=O)[O-])c2)cc1,"inconclusive [inhibitor, single point]",–
CCOc1cc(C(=O)Nn2cnnc2)cc(OCC)c1OCC,"inconclusive [inhibitor, single point]",–
CN1CCN(C(=O)CSc2nc3ccc(NC(=O)c4ccccc4F)cc3s2)CC1,"inconclusive [inhibitor, single point]",–
CCNS(=O)(=O)c1ccc(NC(=O)CSc2nc(-c3ccco3)cc(C(F)(F)F)n2)cc1,active: 7.31 µM,–
Cc1cccc(NC(=S)c2nc3ccccc3s2)c1,"inconclusive [inhibitor, single point]",–
COc1cccc(NC(=O)CCC(=O)N2Cc3ccccc3Oc3ncccc32)c1,–,inactive: -17.6%
C[C@H]1CC[C@H]2C(=O)N[C@H](Cc3ccccc3)C(=O)N2[C@@H]1c1ccccc1,"inconclusive [inhibitor, single point]",–
CCOc1ccc2[nH]c(=O)c(CN(CCCN3CCOCC3)Cc3nnnn3Cc3ccc(OC)cc3)cc2c1,active: 20.6 µM,–
Cc1cccc(C(=O)Nc2cccc(NC(=O)c3ccccc3)c2)c1,"inconclusive [inhibitor, single point]",–
CC(=O)N1CCN(CC(=O)Nc2cc(S(=O)(=O)N3CCOCC3)ccc2C)CC1,–,inactive: -15.7%
CC1(C)CC(=O)c2cc(OCC(=O)NCc3cccnc3)ccc2O1,–,inactive: -24%
CCCCn1c(C2CCCCC2)nc2cc3[nH]c(=O)c(C(C)C)nc3cc21,"inconclusive [inhibitor, single point]",–
C=C1CC2C(CCC3(C)C2CCC3(O)C(C)=O)C2(C)CCC(=O)C=C12 (stereo unspecified),active: 25.9 µM,–
